Source: the supplement of paper PMC7826260
This is one part of the list. Viral Rep nickase domains cut single-stranded DNA in vitro at 3 µM enzyme and 37 °C for 1 h; the strands have 90 letters, of which the middle is given. Numbers give uncut DNA relative to the enzyme-free pool, as log2; uncut sequences lie near 0, cut ones below; no hit call is given. Because reads are shares of a total, they shift together; values above 0 arise when much of the pool is cut.

Key:
Assay in all cases: uncleaved DNA left, log2 of reads against the no-enzyme library (log2 ratio); higher = less cleavage (more negative = more Rep cleavage of the k-mer); sequences stand for … in CTCGTCCG…ACCGGAGA
[1] = system: T1, Rep nickase domain of Muscovy duck circovirus
T1 sequence (Rep 1-111, printed without the tag): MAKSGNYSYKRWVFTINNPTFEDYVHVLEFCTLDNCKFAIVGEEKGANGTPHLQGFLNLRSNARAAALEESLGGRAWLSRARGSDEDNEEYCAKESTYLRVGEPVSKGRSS
Experimental: (§1)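 A pool of 90-nt single-stranded DNAs with seven random bases just before the constant AC of the nick site (name = the seven bases) was cut by 3 µM recombinant His6-SUMO-tagged Rep nickase domain (300 nM DNA, 50 mM HEPES pH 8.0, 50 mM NaCl, 1 mM MnCl2, 1 h, 37 °C, three replicates). Uncut DNA was amplified and sequenced.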

[2] = system: T2, Rep nickase domain of banana bunchy top virus
T2 sequence (Rep 1-94, printed without the tag): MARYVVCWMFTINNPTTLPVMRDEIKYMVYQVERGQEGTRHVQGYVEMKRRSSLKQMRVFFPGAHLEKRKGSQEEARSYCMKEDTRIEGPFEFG
Experimental: as §1

[3] = system: T3, Rep nickase domain of cabbage leaf curl virus
T3 sequence (Rep 1-116, printed without the tag): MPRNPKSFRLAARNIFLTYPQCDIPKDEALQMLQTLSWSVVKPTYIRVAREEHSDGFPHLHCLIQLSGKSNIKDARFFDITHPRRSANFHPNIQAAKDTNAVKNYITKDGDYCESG
Experimental: as §1

[4] = system: T4, Rep nickase domain of chickpea chlorotic dwarf virus
T4 sequence (Rep 1-124, printed without the tag): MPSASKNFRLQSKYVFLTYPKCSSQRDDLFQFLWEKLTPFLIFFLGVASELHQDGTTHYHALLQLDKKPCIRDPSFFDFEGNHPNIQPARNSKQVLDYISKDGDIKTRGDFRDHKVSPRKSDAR
Experimental: as §1

[5] = system: T5, Rep nickase domain of faba bean necrotic yellows virus
T5 sequence (Rep 1-98, printed without the tag): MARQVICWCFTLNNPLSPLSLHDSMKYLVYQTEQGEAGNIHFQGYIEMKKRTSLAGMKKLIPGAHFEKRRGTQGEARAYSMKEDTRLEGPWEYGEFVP
Experimental: as §1

[6] = system: T6, Rep nickase domain of maize striate mosaic virus
T6 sequence (Rep 1-117, printed without the tag): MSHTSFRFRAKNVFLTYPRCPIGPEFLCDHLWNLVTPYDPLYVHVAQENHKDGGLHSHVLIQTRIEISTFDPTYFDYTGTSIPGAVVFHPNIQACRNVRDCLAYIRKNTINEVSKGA
Experimental: as §1

[7] = system: T7, Rep nickase domain of porcine circovirus 2
T7 sequence (Rep 2-116, printed without the tag): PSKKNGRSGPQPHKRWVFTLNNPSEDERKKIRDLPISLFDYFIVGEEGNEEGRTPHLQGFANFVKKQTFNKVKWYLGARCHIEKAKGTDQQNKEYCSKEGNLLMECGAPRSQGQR
Experimental: as §1

[8] = system: T8, Rep nickase domain of tomato golden mosaic virus
T8 sequence (Rep 1-124, printed without the tag): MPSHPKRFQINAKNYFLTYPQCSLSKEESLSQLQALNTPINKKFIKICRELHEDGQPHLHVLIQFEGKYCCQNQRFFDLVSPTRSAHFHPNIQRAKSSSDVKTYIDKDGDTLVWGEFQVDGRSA
Experimental: as §1

[9] = system: T9, Rep nickase domain of tomato yellow leaf curl virus
T9 sequence (Rep 1-136, printed without the tag): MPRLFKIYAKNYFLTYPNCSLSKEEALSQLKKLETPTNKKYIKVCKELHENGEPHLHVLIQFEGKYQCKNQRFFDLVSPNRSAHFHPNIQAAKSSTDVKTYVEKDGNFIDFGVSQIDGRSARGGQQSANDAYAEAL
Experimental: as §1

[10] = system: T10, Rep nickase domain of wheat dwarf virus
T10 sequence (Rep 1-137, printed without the tag): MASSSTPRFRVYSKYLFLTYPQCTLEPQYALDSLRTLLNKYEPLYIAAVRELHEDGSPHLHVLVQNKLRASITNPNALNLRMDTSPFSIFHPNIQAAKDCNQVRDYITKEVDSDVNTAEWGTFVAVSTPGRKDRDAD
Experimental: as §1

Sequence | uncleaved DNA left (log2) [1] | uncleaved DNA left (log2) [2] | uncleaved DNA left (log2) [3] | uncleaved DNA left (log2) [4] | uncleaved DNA left (log2) [5] | uncleaved DNA left (log2) [6] | uncleaved DNA left (log2) [7] | uncleaved DNA left (log2) [8] | uncleaved DNA left (log2) [9] | uncleaved DNA left (log2) [10]
CATTCAG | 0.114 | -0.0305 | -0.714 | -0.064 | 0.0383 | -0.931 | 0.191 | 0.0833 | 0.114 | -0.044
ATTATCT | -0.398 | -0.0255 | -0.0772 | -2.28 | 0.0626 | -0.674 | -3.29 | 0.0327 | 0.124 | 0.0323
TCAGTAT | 0.208 | 0.0104 | 0.212 | 0.583 | 0.15 | 1.08 | 0.242 | 0.0906 | 0.00278 | 0.0816
CAAGATG | -0.137 | -0.0339 | 0.204 | 1.25 | 0.0484 | 1.47 | -0.00362 | 0.00336 | -0.171 | 0.0436
AGCTTAT | -0.17 | 0.00387 | 0.0731 | -0.047 | -0.0959 | 0.0518 | -1.67 | -0.0367 | 0.0674 | -0.0521
GCGATCT | 0.0904 | -0.00458 | -0.0309 | 0.444 | -0.024 | 1.41 | 0.0137 | -0.119 | 0.0636 | 0.103
TAGAACT | 0.06 | -1.74 | -1.34 | -2.92 | -0.794 | 0.113 | -3.5 | -0.0074 | 0.157 | -0.0345
AGTCCTG | 0.144 | 0.0262 | 0.118 | 0.669 | -0.0657 | 1.57 | 0.0728 | -0.045 | 0.1 | 0.142
TGTGAAT | 0.132 | 0.0215 | 0.315 | 0.727 | 0.0499 | 1.36 | -0.0337 | 0.0604 | 0.0636 | 0.15
TCAGCCA | -0.0145 | 0.00334 | 0.0254 | -1.2 | -0.0995 | -0.784 | -0.164 | -0.0177 | -0.0329 | -0.069
TAGCTTC | 0.052 | 0.124 | 0.16 | -0.391 | 0.0574 | -0.406 | -0.948 | -0.0229 | 0.0675 | 0.0518
ACTGAGC | 0.0856 | 0.0305 | -0.00709 | 0.511 | 0.000663 | 0.241 | 0.156 | 0.123 | 0.008 | 0.0669
ATGGTGC | 0.0162 | -0.0704 | -0.546 | -0.457 | -0.101 | -0.869 | 0.117 | 0.0206 | 0.0172 | -0.0796
GTTTCGT | 0.0424 | -0.00105 | 0.153 | 0.536 | -0.0586 | 0.834 | -0.0618 | -0.0421 | 0.016 | 0.117
CACAAGG | 0.101 | 0.0641 | 0.329 | 0.962 | 0.124 | 0.337 | 0.208 | 0.128 | 0.0241 | 0.135
GCCGTTG | -0.0169 | -0.228 | -0.234 | -0.238 | -0.0685 | -0.736 | -0.0664 | -0.0951 | -0.117 | -0.122
CTGATGA | 0.0599 | -0.0303 | -0.114 | -0.0356 | -0.0477 | -0.859 | 0.0935 | 0.00735 | -0.0879 | -0.0339
CAAGTTT | -0.0786 | -0.0597 | -2.92 | -2.72 | -0.0183 | -0.771 | -0.802 | -0.888 | 0.0022 | -1.02
TGCGCGC | -0.268 | -0.118 | -0.658 | -0.728 | -0.101 | -0.911 | -0.0369 | -0.104 | -0.214 | -0.188
GGGCAAC | 0.00174 | -0.0047 | 0.865 | 1.83 | -0.0639 | 2.16 | 0.0378 | 0.0102 | 0.00359 | 0.15
ACCGCTT | -0.162 | -0.14 | -0.407 | -1.91 | -0.0827 | -0.721 | -0.106 | -0.0347 | -0.18 | -0.287
CTGGTTG | 0.052 | -0.0234 | -0.514 | -0.358 | 0.0483 | -0.811 | -0.131 | 0.0362 | 0.0755 | -0.105
CCAGGGT | 0.112 | 0.0379 | 0.335 | 1.4 | 0.106 | 1.82 | 0.142 | 0.0602 | -0.091 | 0.0803
CAAGCGT | -0.0836 | -0.0833 | -0.893 | -0.942 | -0.0979 | -1.01 | -0.0608 | -0.188 | 0.0152 | -0.164
CGTCTCA | 0.194 | 0.0866 | 0.153 | -0.271 | 0.0993 | 0.135 | -0.0269 | 0.0798 | 0.189 | 0.171
CTTTCGG | -0.0649 | -0.113 | 0.396 | 1.3 | -0.121 | 1.47 | 0.0841 | 0.0138 | -0.0991 | 0.0534
TGCGACC | -0.00589 | 0.037 | -0.177 | 0.315 | 0.0207 | -0.496 | 0.0242 | 0.0339 | 0.0181 | 0.0317
CGGGGAT | 0.161 | 0.147 | 0.598 | 1.66 | 0.211 | 2.03 | 0.223 | 0.0229 | -0.0524 | 0.148
TACATCG | 0.0234 | -0.0762 | -0.863 | -0.33 | 0.0761 | -0.975 | 0.0965 | -0.0333 | -0.0555 | -0.122
ACCCGTG | 0.102 | 0.0231 | -0.646 | -0.187 | -0.0931 | -0.849 | 0.123 | 0.0535 | -0.0144 | -0.142
